# Measurements reported in publication PMC4336329 (PLoS ONE, 2015).
# About 2,200 (0.71%) of roughly 310,000 compounds showed an effect of 50% or more. The effect is printed as a negative number. Some of the results follow.
# Molecular target: human ether-à-go-go-related gene (hERG) potassium channel (human, UniProt Q12809)
# Assay: primary screen, population patch clamp on CHO cells stably expressing hERG
# Chain of human ether-à-go-go-related gene (hERG) potassium channel (Q12809 whole entry, looked up): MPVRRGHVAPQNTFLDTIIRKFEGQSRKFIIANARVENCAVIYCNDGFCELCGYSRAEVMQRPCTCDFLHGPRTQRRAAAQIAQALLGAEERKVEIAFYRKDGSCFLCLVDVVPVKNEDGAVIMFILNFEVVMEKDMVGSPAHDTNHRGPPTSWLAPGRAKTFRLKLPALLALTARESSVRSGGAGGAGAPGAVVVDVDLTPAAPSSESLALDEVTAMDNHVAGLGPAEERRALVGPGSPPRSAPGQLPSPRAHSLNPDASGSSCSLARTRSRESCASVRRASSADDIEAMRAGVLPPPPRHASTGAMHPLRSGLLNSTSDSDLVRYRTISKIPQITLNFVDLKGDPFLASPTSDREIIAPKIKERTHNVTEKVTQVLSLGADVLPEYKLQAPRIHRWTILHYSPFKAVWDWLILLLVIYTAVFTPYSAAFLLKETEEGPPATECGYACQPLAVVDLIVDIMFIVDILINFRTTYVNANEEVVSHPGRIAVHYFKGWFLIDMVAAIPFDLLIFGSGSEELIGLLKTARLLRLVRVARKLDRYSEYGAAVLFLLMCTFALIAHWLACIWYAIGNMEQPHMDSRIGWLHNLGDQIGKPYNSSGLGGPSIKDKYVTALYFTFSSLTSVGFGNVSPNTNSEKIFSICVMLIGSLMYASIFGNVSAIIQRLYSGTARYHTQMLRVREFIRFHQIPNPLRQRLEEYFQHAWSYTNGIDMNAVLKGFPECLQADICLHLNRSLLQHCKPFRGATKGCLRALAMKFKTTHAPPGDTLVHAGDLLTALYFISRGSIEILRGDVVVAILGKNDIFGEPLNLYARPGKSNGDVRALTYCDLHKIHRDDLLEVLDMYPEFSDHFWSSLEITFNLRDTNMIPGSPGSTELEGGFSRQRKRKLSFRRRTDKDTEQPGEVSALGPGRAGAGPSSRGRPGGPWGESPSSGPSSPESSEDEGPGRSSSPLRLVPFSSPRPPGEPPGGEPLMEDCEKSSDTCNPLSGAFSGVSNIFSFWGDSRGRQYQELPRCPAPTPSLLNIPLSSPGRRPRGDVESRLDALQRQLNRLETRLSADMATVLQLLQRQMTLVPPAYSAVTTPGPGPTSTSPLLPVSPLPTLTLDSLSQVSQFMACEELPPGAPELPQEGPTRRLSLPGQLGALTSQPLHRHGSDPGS
row,SMILES,"hERG current change (%, negative = inhibition) at 1uM"
1,Cc1cc(C)cc(N2CCCn3c2nc2c3c(=O)n(CC(=O)OCc3ccccc3)c(=O)n2C)c1,-9.51%
2,Cc1cc(C)n(-c2ncnc3sc4c(c23)CC(C)CC4)n1 (centres unmarked),34.2%
3,Cc1ccc(C(=O)N(c2ccccn2)C(C)c2ccco2)cc1 (centres unmarked),4.44%
4,COc1ccccc1Nc1nc(N)nc(CSc2nncn2C)n1,11.2%
5,CCC(OCC(O)CN1CCN(CCN2C(=O)c3cccc4cccc(c34)C2=O)CC1)c1ccccc1.Cl (centres unmarked),-12%
6,Cc1ccc(C(c2sc3nc(C)nn3c2O)N2CCN(C(=O)c3ccco3)CC2)cc1 (centres unmarked),-2.74%
7,COc1ccc(-c2nc3ccccc3c(=O)n2N)cc1,-14.3%
8,O=C(N/N=C\c1ccc(-c2ccc([N+](=O)[O-])cc2)o1)c1ccc2c(c1)OCO2,7.6%
9,CC(NCCc1ccc(S(N)(=O)=O)cc1)C(=O)NCCc1ccc(F)cc1.O=C(O)C(=O)O (centres unmarked),2.89%
10,Cc1ccc(NS(=O)(=O)c2cn(C)c(=O)n(C)c2=O)cc1C,9.08%
11,CCCCN(C(=O)CCCSc1nc2ccccc2[nH]1)c1c(N)n(Cc2ccccc2)c(=O)[nH]c1=O,-13.3%
12,Cn1c(N)c(C(=O)COC(=O)c2ccnc3ccccc23)c(=O)n(C)c1=O,11.1%
13,NS(=O)(=O)c1ccc(NC(=O)COc2ncnc3sccc23)cc1,14.6%
14,CCC1CCCCN1S(=O)(=O)c1ccc(-n2cnnn2)c(C)c1 (centres unmarked),16.8%
15,Cc1nn(Cc2noc(C(=O)NC3CCC(C)CC3)n2)c(C)c1Br (centres unmarked),21%
16,O=C(NCc1ccncc1)c1ccc(N2CCCC2)c([N+](=O)[O-])c1,2.33%
17,Cc1ccc(NC(=O)/C(=C\c2ccc([N+](=O)[O-])cc2)NC(=O)c2ccccc2)cc1,2.45%
18,CCC(C)[C@H]1CNCCN1CC1(c2ccccc2)CC1 (some centres unmarked),6.47%
19,Cc1noc(C)c1CSCC(=O)Nc1nc2ccc(Oc3ccccc3)cc2s1,-3.98%
20,CN(C)c1cc[n+](/C(C(=S)Nc2ccc(SC(F)F)cc2)=C(/[O-])c2ccccc2)cc1,7.6%
21,CCCC1(C(=O)OCC)NC(c2ccc(O)cc2)C2C(=O)N(c3ccc4c(c3)OCCO4)C(=O)C21 (centres unmarked),7.55%
22,CC(OC(=O)c1ccc2ccccc2n1)C(=O)c1ccccc1 (centres unmarked),0.749%

row,SMILES,"hERG current change (%, negative = inhibition) at 1uM"
1,COc1ccc(C2=NOC(C(=O)N3CCCCCC3)C2)cc1OC (centres unmarked),2.22%
2,Cc1cc(C)c(NC(=O)c2cnn(C)c2)c(C)c1,-0.429%
3,Cn1c(=O)c2sccc2n2c(CCCC(=O)Nc3ccc(F)cc3F)nnc12,19.1%
4,O=C(CCSc1ccc(F)cc1)NNC(=O)c1ccccc1Cl,9.92%
5,COc1ccccc1/C=N\Nc1cc(C)nc(-n2nc(C)cc2C)n1,8.23%
6,Cl.O=C(CN1CCOCC1)NC1C2CC3CC(C2)CC1C3 (centres unmarked),0.888%
7,Cc1cc(C)cc(NC(=O)CN2CCc3cc4c(cc3C2C)OCCCO4)c1 (centres unmarked),7.79%
8,O=C(CC1S/C(=N/N=C2CCCCCC2)NC1=O)Nc1ccc(Br)cc1F (centres unmarked),3.64%
9,COc1cccc(C=Nc2ccccc2C(=O)Nc2nccs2)c1OC,9.17%
10,CCCNC(=O)c1oc2ccc3c(c2c1C)C(O)CC(C)(C)O3 (centres unmarked),5.69%
11,Cc1cccc(NC(=O)c2ccc(COc3ccc(Cl)cc3Cl)o2)n1,14.6%
12,O=C(NC1CCCCC1)C1CCCN(S(=O)(=O)c2cccs2)C1 (centres unmarked),16.9%
13,CN1C(=O)[C@@H]2[C@@H]3C[C@@H]([C@H]4ON=C(c5ccc(Cl)cc5Cl)[C@@H]34)[C@@H]2C1=O,-4.33%
14,O=C(N1CCCCC1)C1(S(=O)(=O)c2ccccc2)CC=CC1,10.4%
15,COc1cccc(CNC(=O)CCCN2C(=O)C(c3ccccc3)Oc3cccnc32)c1OC (centres unmarked),6.7%
16,O=C(/C=C/c1ccc(Cl)cc1)Nn1c(-c2cccs2)nc2ccccc2c1=O,18%
17,O=C(Nc1ccc(N2CCCCC2)c(C(=O)O)c1)c1ccco1,7.98%
18,COC(=O)c1ccc(N2C(=O)CC(N3CCN(C(=O)c4ccco4)CC3)C2=O)cc1 (centres unmarked),-8.41%
19,COc1ccc(OC)c(N(C(=O)c2snc(C(N)=O)c2N)C(C(=O)NCC2CCCO2)c2ccc3ncccc3c2)c1 (centres unmarked),11.5%
20,O=C(Cn1c(=O)oc2cccnc21)Nc1ccc(C(F)(F)F)cc1,11.2%
21,Cc1ccc2nc(N/C(=N/S(=O)(=O)c3ccc(F)cc3)c3ccccc3)sc2c1,26.8%
22,Cc1cc(C(=O)OCC(=O)c2cccc([N+](=O)[O-])c2)c2ccccc2n1,11.5%

row,SMILES,"hERG current change (%, negative = inhibition) at 1uM"
1,C=CCn1c(C2CC(=O)N(c3ccc(C)cc3)C2)nc2ccccc21 (centres unmarked),-5.61%
2,Cc1ccc(OCC(=O)O/N=C(\N)c2cccc([N+](=O)[O-])c2)cc1C,10.6%
3,CCCC12CN3CC(CCC)(CN(C1)C3c1ccco1)C2=O (centres unmarked),8.47%
4,O=C(CCCCCN1C(=O)[C@@H]2Cc3ccccc3CN2C1=O)Nc1ccccc1F,10.4%
5,COCc1[nH]c(=S)c(C#N)cc1C(=O)OC,12.9%
6,O=C(CSc1nnc2c(n1)[nH]c1ccc(F)cc12)N1CCOCC1,16.9%
7,CC(C)(O)C#Cc1ccc(CN2CCC(CO)(CCc3ccccc3)CC2)cc1,-1.63%
8,COc1ccc(C2Nc3ccccc3C(=O)N2NS(=O)(=O)c2ccccc2)c(OC)c1 (centres unmarked),4.72%
9,CN(C(=O)c1ccco1)c1nc(CC(=O)Nc2ccccc2)cs1,-7.22%
10,COc1cccc(NS(=O)(=O)c2ccc3c(c2)n(C)c(=O)c(=O)n3C)c1,4.37%
11,O=C(CSc1ccccn1)c1ccc2c(c1)OCO2,15.7%
12,COC(=O)N/N=C/c1cc(C)n(-c2cccc3ccccc23)c1C,5.93%
13,Cl.O=C(CCN1CCc2ccccc2C1)Nc1ccc(F)c(F)c1,10.6%
14,CN(CCO)CC(O)CN(c1ccccc1)c1ccccc1.Cl (centres unmarked),-11.9%
15,CCOC(=O)c1ccc(Nc2c(OCC)c(=O)c2=O)cc1,4.61%
16,N/C(=N\OC(=O)COc1ccc(Cl)cc1Cl)c1ccccn1,7.37%
17,Cc1ccc(S(=O)(=O)Nc2cccc(C(=O)NCC(C)(C)N3CCOCC3)c2)cc1F,-13.3%
18,COc1ccc(S(=O)(=O)N2CCN(C(=O)c3cccnc3)CC2)cc1OC,9.73%
19,Cc1ccc(S(=O)(=O)NCc2cccnc2)cc1C,13.7%
20,O=C(Nc1cccc(S(=O)(=O)N2CCCCC2)c1)c1cccs1,2.75%
21,CCN(CCCn1c(=S)[nH]c2ncccc2c1=O)c1ccccc1,10.5%
22,COc1ccc(-c2cc(C#N)nc(Cl)n2)cc1,13.2%

row,SMILES,"hERG current change (%, negative = inhibition) at 1uM"
1,CN1CCN(CCCNC(=O)c2nnc(Cc3c(F)cccc3Cl)o2)CC1,1.2%
2,Cc1cc(=S)[nH]c2c(C)cccc12,15.9%
3,CCN(CC)S(=O)(=O)N1CCC(C(=O)NCc2ccc3c(c2)OCO3)CC1,1.07%
4,Cc1ccc(S(=O)(=O)c2c(C)cc(C)nc2N2CCOCC2)cc1,15.2%
5,O=C(CCCNC(=O)c1ccc(Cl)cc1)Nc1cccc(F)c1,14.1%
6,O=C(NCCc1cccnc1)C1CCC(=O)N(CCc2cccc(F)c2)C1 (centres unmarked),2.95%
7,CCCN(CC(=O)Nc1ccc(Cl)cc1Cl)C(=O)/C=C/c1ccco1,8.31%
8,Cc1ccc(-n2c(C)nnc2SCC(=O)NC2CC2)cc1,8.23%
9,CC(C)(C)C(=O)/C=C(\N)c1ccccn1,-1.33%
10,[Cl-].c1ccc(-c2c[nH]c3[n+]2CCCCC3)cc1,2.88%
11,O=C(Nc1ccc(Cl)c(S(=O)(=O)N2CCOCC2)c1)c1cc(=O)[nH]c2ccccc12,3.57%
12,CCc1cc2ccc(OC)cc2nc1SCC(=O)N1CCN(C(=O)c2ccco2)CC1,0.367%
13,Cc1ccc(NC(=O)CCN2C(=O)c3cccc4cccc(c34)C2=O)cc1,10.1%
14,CCN(CC)C(=O)Cn1cc(C(=O)C(=O)N2CCN(c3ccc([N+](=O)[O-])cc3)CC2)c2ccccc21,-6.24%
15,Cc1ccc(C(=O)Nc2nnc(S(=O)(=O)Nc3ccccc3C)s2)cc1C,14.5%
16,CCn1nccc1C(=O)Nc1cc(Cl)cc(Cl)c1,-2.09%
17,NC(=O)C[n+]1cccc(C(N)=O)c1.[Cl-],12.2%
18,O=C(Nc1ccccc1)/C(=C/c1ccccc1)c1ccccc1,1.32%
19,CC(=O)c1cc2c(cc1NC(=O)CN1CCCCCC1)OCO2.O=C(O)C(=O)O,7.79%
20,COc1ccc(CCNCc2cccn2C)cc1OC.Cl,11.2%
